Measurements reported in article PMC6794377.
These are yes or no findings as the source states them, for the method shown. In cells and extracts the contact can be indirect. Some entries that bind do so weakly or less than the wild type. Tags and fused reporters may be left off the sequences shown.

T1: hThrRS-L-T449D with a C-terminal FLAG tag (human) (UniProt A2RTX5)
T1 sequence: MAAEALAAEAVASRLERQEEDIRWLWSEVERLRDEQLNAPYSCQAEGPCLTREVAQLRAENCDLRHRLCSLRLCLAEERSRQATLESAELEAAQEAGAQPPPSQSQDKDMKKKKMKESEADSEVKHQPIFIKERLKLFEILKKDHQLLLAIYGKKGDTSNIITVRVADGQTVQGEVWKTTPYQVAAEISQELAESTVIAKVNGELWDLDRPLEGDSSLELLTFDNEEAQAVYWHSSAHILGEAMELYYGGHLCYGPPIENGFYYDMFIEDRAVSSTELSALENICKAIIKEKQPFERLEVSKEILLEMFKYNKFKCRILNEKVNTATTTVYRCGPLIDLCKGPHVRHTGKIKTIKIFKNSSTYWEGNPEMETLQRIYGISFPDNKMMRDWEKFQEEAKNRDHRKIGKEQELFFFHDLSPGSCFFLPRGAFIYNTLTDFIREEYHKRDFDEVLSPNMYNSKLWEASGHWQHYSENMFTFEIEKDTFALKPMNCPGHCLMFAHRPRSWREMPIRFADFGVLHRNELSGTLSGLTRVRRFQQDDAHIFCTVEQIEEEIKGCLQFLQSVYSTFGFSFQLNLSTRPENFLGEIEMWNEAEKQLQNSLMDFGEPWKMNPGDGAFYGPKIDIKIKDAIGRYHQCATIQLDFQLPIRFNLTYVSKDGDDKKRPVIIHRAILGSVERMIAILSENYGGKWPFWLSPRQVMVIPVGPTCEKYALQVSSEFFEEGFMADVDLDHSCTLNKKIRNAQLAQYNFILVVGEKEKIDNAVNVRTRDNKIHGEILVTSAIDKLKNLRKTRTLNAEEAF

T2: hThrRS-L-Hb/A-FLAG (human) (UniProt A2RTX5)
T2 sequence: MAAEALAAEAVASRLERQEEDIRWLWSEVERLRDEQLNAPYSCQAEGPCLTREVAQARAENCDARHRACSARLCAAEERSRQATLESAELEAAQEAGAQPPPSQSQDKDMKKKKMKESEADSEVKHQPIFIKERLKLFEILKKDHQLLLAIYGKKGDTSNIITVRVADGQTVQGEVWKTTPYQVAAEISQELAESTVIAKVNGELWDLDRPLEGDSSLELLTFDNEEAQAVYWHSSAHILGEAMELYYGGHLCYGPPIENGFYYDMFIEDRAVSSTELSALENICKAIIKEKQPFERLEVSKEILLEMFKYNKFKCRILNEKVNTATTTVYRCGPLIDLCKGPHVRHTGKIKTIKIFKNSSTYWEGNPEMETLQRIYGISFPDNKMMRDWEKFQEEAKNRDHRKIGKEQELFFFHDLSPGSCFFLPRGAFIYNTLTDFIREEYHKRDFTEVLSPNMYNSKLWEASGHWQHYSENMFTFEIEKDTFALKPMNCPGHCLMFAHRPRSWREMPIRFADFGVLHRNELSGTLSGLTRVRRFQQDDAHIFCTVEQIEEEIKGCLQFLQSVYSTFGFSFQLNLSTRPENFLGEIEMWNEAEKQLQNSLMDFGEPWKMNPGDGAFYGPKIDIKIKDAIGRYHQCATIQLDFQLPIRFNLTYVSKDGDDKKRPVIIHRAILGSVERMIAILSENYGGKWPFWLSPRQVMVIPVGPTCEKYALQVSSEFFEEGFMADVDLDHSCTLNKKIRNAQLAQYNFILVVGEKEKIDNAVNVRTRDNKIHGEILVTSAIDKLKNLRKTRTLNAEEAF

T3: hThrRS-L-Y619D with a C-terminal FLAG tag (human) (UniProt A2RTX5)
T3 sequence: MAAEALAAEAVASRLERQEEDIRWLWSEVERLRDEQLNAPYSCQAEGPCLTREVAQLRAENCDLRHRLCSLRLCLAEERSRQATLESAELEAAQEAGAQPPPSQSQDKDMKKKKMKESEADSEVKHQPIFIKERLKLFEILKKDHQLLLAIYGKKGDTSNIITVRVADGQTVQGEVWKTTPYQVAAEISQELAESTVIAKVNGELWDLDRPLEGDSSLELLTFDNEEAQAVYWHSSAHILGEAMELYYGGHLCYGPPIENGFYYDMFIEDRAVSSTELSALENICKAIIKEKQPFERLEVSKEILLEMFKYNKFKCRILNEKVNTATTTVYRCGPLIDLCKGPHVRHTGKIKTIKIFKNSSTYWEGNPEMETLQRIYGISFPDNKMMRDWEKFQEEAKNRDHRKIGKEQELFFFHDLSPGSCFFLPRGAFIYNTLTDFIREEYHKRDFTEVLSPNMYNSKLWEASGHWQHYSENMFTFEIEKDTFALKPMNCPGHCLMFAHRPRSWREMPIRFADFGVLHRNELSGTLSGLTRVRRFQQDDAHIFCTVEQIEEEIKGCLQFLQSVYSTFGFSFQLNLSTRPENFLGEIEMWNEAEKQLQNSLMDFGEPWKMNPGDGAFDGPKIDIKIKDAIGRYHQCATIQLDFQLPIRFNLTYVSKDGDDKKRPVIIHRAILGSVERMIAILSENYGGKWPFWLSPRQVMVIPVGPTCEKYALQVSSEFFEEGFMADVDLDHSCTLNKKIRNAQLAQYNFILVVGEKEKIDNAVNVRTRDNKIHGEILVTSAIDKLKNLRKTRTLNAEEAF


Legend:
Assay in all cases: co-IP; FLAG-tagged hThrRS-L or mutant overexpressed in HEK293T; IP with anti-FLAG, Dynabeads protein G, 4°C; endogenous partners detected by western blotting
[1] = biological target: T1, hThrRS-L-T449D with a C-terminal FLAG tag (human)
[2] = biological target: T2, hThrRS-L-Hb/A-FLAG (human)
[3] = biological target: T3, hThrRS-L-Y619D with a C-terminal FLAG tag (human)

binding [1] | binding [2] | binding [3] | Binder
binds | no binding | binds | ArgRS, endogenous in human cells (enzyme, UniProt P54136 1-660) MDVLVSECSARLLQQEEEIKSLTAEIDRLKNCGCLGASPNLEQLQEENLKLKYRLNILRKSLQAERNKPTKNMINIISRLQEVFGHAIKAAYPDLENPPLLVTPSQQAKFGDYQCNSAMGISQMLKTKEQKVNPREIAENITKHLPDNECIEKVEIAGPGFINVHLRKDFVSEQLTSLLVNGVQLPALGENKKVIVDFSSPNIAKEMHVGHLRSTIIGESISRLFEFAGYDVLRLNHVGDWGTQFGMLIAHLQDKFPDYLTVSPPIGDLQVFYKESKKRFDTEEEFKKRAYQCVVLLQGKNPDITKAWKLICDVSRQELNKIYDALDVSLIERGESFYQDRMNDIVKEFEDRGFVQVDDGRKIVFVPGCSIPLTIVKSDGGYTYDTSDLAAIKQRLFEEKADMIIYVVDNGQSVHFQTIFAAAQMIGWYDPKVTRVFHAGFGVVLGEDKKKFKTRSGETVRLMDLLGEGLKRSMDKLKEKERDKVLTAEELNAAQTSVAYGCIKYADLSHNRLNDYIFSFDKMLDDRGNTAAYLLYAFTRIRSIARLANIDEEMLQKAARETKILLDHEKEWKLGRCILRFPEILQKILDDLFLHTLCDYIYELATAFTEFYDSCYCVEKDRQTGKILKVNMWRMLLCEAVAAVMAKGFDILGIKPVQRM
binds | no binding | binds | native p43 (AIMP1), endogenous in human cells (protein, UniProt Q12904-2 1-336) MLPAVAVSEPVVLRFMIFCRLLAKMANNDAVLKRLEQKGAEADQIIEYLKQQVSLLKEKAILQATLREEKKLRVENAKLKKEIEELKQELIQAEIQNGVKQIPFPSGTPLHANSMVSENVIQSTAVTTVSSGTKEQIKGGTGDEKKAKEKIEKKGEKKEKKQQSIAGSADSKPIDVSRLDLRIGCIITARKHPDADSLYVEEVDVGEIAPRTVVSGLVNHVPLEQMQNRMVILLCNLKPAKMRGVLSQAMVMCASSPEKIEILAPPNGSVPGDRITFDAFPGEPDKELNPKKKIWEQIQPDLHTNDECVATYKGVPFEVKGKGVCRAQTMSNSGIK
binds | binds | binds | native hThrRS, endogenous in HEK293T (enzyme, UniProt P26639 1-723) MFEEKASSPSGKMGGEEKPIGAGEEKQKEGGKKKNKEGSGDGGRAELNPWPEYIYTRLEMYNILKAEHDSILAEKAEKDSKPIKVTLPDGKQVDAESWKTTPYQIACGISQGLADNTVIAKVNNVVWDLDRPLEEDCTLELLKFEDEEAQAVYWHSSAHIMGEAMERVYGGCLCYGPPIENGFYYDMYLEEGGVSSNDFSSLEALCKKIIKEKQAFERLEVKKETLLAMFKYNKFKCRILNEKVNTPTTTVYRCGPLIDLCRGPHVRHTGKIKALKIHKNSSTYWEGKADMETLQRIYGISFPDPKMLKEWEKFQEEAKNRDHRKIGRDQELYFFHELSPGSCFFLPKGAYIYNALIEFIRSEYRKRGFQEVVTPNIFNSRLWMTSGHWQHYSENMFSFEVEKELFALKPMNCPGHCLMFDHRPRSWRELPLRLADFGVLHRNELSGALTGLTRVRRFQQDDAHIFCAMEQIEDEIKGCLDFLRTVYSVFGFSFKLNLSTRPEKFLGDIEVWDQAEKQLENSLNEFGEKWELNSGDGAFYGPKIDIQIKDAIGRYHQCATIQLDFQLPIRFNLTYVSHDGDDKKRPVIVHRAILGSVERMIAILTENYGGKWPFWLSPRQVMVVPVGPTCDEYAQKVRQQFHDAKFMADIDLDPGCTLNKKIRNAQLAQYNFILVVGEKEKISGTVNIRTRDNKVHGERTISETIERLQQLKEFRSKQAEEEF
